Hit rate of the full screen: of about 44,000 compounds, about 340 (0.77%) were called active. About 5% were inconclusive and are not listed. Calls come from the whole dose curve; as a rule, active = well fitted inhibition curve with a large enough effect; inconclusive = small, poorly fitted or top-dose-only effect; inactive = flat fitted curve, though single readings scatter. The list shows a part of the results.
Assay: Acumen qHTS Assay for Inhibitors of the mTORC1 Signaling Pathway in MEF (Tsc2-/-, p53-/-) Cells: Sytravon;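 note: plate controls were DMSO for no effect and rapamycin for full effect; nearly all actives have a fitted effect of over 50% in size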
Conditions: phospho-rpS6 immunofluorescence/PI, 24 h; series mostly up to 38.3 µM; activity change, negative = inhibition: at the top concentration
Method in brief: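 Tsc2-/-, p53-/- mouse embryonic fibroblasts (empty-vector line) exposed to compound 24 hrs at 37 C, fixed, immunostained for phospho-rpS6 and counterstained with propidium iodide. Acumen laser scanning gives % positive cells from Alexa 488/PI ratio, thresholded using 7.5 nM rapamycin; PI count gives viability.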

Activity change, negative = inhibition, inactive:
Cc1cccc(Cn2cc(C(=O)Nc3ccc(S(N)(=O)=O)cc3)ccc2=O)c1 -1.11%
O=C(C1CCN(S(=O)(=O)Cc2ccccc2)CC1)N1CCN(c2ccccc2F)CC1 2.23%
CCc1ccccc1NC(=O)C(C)n1nc(-c2ccc(C)c(C)c2)ccc1=O (stereo not given) -14.1%
CCCCNC(=O)CN1C(=O)COc2ccc(S(=O)(=O)N3CCCC3)cc21 -3.52%
CCCn1c2ccccc2c2cnn(CC(=O)NCc3cc(OC)ccc3OC)c(=O)c21 -3.27%
CC1=C(C(=O)OCC2CCCCC2)C(c2ccc(Cl)cc2Cl)CC(=O)N1 (stereo not given) -4.23%
O=C(Nc1ccccc1OCc1cc(=O)n2ccccc2n1)c1ccccc1F 9.18%
COC(=O)c1ccc(Cn2nnc3sc4c(c3c2=O)CCCC4)cc1 -4.31%
CCc1ccccc1OCCSc1nnc(-c2cc(OC)c(OC)c(OC)c2)o1 -7.95%
CCOC(=O)c1cccc(NC(=O)C(Cc2ccccc2)NS(=O)(=O)c2cccc3nsnc23)c1 (stereo not given) -11.9%
CCN(CC)c1ccc(NC(=O)c2cc3c(=O)n4cccc(C)c4nc3n2C)c(C)c1 0.191%
Cc1cc(S(=O)(=O)NCC(c2ccc(N(C)C)cc2)N2CCOCC2)ccc1F (stereo not given) 4.28%
O=C(CSC1=Nc2ccccc2N=C(c2ccc(F)cc2)C1)NCc1ccc(Cl)cc1 -1.97%
CC(=O)c1ccc(NC(=O)c2nc3ccccc3n(C)c2=O)cc1 -6.62%
CCn1nc(C)c2c(-c3ccccc3)cc(=O)n(C(C)C(=O)NCc3ccc(C)cc3)c21 (stereo not given) 0%
CCCCCNC(=O)CCn1c(=O)[nH]c2ccccc2c1=O -1.32%
COc1ccc(/C=C/c2nc3ccccc3c(=O)n2-c2cccc(C(F)(F)F)c2)cc1 8.49%
Cc1ccc(CN(C(=O)COc2ccc(Cl)cc2Cl)C2CCS(=O)(=O)C2)o1 (stereo not given) 3.97%
Cc1[nH]c(=O)[nH]c(=O)c1S(=O)(=O)N1CCN(c2cccc(Cl)c2)CC1 -0.0302%
CCCNC(=O)Cn1nc(-c2ccc(C)c(C)c2)c2cnc3ccc(F)cc3c21 -9.84%
Cc1ccc(C)c(CN2C(=O)CSc3ccc(C(=O)NCCc4ccc(Cl)cc4)cc32)c1 1.52%
O=C(Nc1cccc(C(F)(F)F)c1)Nc1nnc(N2CCCCC2)s1 2.94%
N#Cc1c(Nc2cccc(F)c2)sc(C(=O)c2ccc(Cl)cc2)c1N 0.393%
CCN(c1ccccc1)S(=O)(=O)c1ccc2[nH]cc(C(=O)NCc3ccc(C)cc3)c(=O)c2c1 -5%
Cc1c(-c2ccc(Cl)cc2)c(=O)oc2c(CN3CCCC3)c(O)ccc12 0.49%
COc1ccc(N2CC(NC(=O)c3ccc(OC(C)C)cc3)CC2=O)cc1 (stereo not given) -12.4%
COc1ccccc1CNC(=O)CN1C(=O)CCn2nc(-c3ccccc3)cc21 1.82%
COc1ccc(-c2nc3sc(CCNS(=O)(=O)c4ccc(F)c(C)c4)c(C)n3n2)cc1 -14.5%
COc1ccc(N(C(=O)COc2ccccc2OC)S(=O)(=O)c2ccc(Cl)cc2)cc1 0.291%
Cc1noc(C)c1S(=O)(=O)N1CCCC(C(=O)Nc2ccc(C(C)C)cc2)C1 (stereo not given) -11.9%
O=C(c1ccccc1)n1nc(-c2ccco2)nc1NCc1ccccc1Cl -3.52%
CCOc1ccc(CCNC(=O)C2CCC(CNS(=O)(=O)c3ccc(Cl)cc3)CC2)cc1OCC (stereo not given) 0.302%
COc1cccc(-n2cc(C(=O)Nc3cc(C)c(Cl)cc3OC)c3ccccc3c2=O)c1 -3.3%
CCOc1ccc(CNC(=O)C2CCN(c3nn4c(=O)cc(C)nc4s3)CC2)cc1 4.4%
CC1CC(=O)N(CC(=O)Nc2ccc(F)cc2F)c2ccccc2S1 (stereo not given) -1.57%
CCOc1ccc(/C=C/c2nc(C#N)c(Nc3ccc(OCC)cc3)o2)cc1 -1.06%
Cn1c(=O)[nH]c(=O)c2c1nc(NCCO)n2CC(O)COc1ccccc1 (stereo not given) 4.07%
Cc1c(-c2ccccc2)c(=O)oc2c(CN3CCCC3)c(O)ccc12 16%
CCc1ccc(C2CC(=O)NC(NC(=O)c3ccc(C(C)(C)C)cc3)=N2)cc1 (stereo not given) 0.336%
Cc1nc2ccn(Cc3ccccc3)c(=O)c2cc1C(=O)NCc1ccccc1F -20.6%
COc1ccc(NC(=O)Nc2cccc(-c3cn4cccnc4n3)c2)cc1 0.109%
O=C(NCCc1ccc(Cl)cc1)c1ccc2c(c1)N(Cc1ccccc1F)C(=O)c1ccccc1S2(=O)=O -1.27%
CCOc1ccc(NC(=O)Cn2c(=O)n(Cc3ccc(C(=O)NCc4ccc(C)cc4)cc3)c(=O)c3ccccc32)cc1 1.19%
COc1cccc(CNC(=O)CN2C(=O)COc3ccc(S(=O)(=O)N4CCCCCC4)cc32)c1 -0.983%
CCc1cccc(NC(=O)Cn2c(=O)n(CCC(=O)NCC3CCCO3)c(=O)c3cc(OC)c(OC)cc32)c1 (stereo not given) 1.93%
Cc1ccc(-c2nc3ncccc3o2)cc1NC(=O)c1ccccc1Br -3.99%
CN(C)c1ccc(NC(=O)CN2CCN(CC(=O)Nc3ccc(Br)cc3)CC2)cc1 0.534%
Cc1ccc(CNC(=O)c2cc3c(s2)-c2ccc(Cl)cc2SC3)cc1 3.04%
Cc1ccc(CSC2=Nc3ccccc3C3=NC(CC(=O)NCc4cccs4)C(=O)N23)cc1 (stereo not given) 4.77%
COc1ccc(C(=O)Nc2nnc(S(=O)(=O)N3CCC(C)CC3)s2)cc1OC 0.521%
O=C(c1cccc(F)c1)N1CCC(c2c[nH]c3ccccc23)(c2c[nH]c3ccccc23)CC1 -4.06%
CCN(C(=O)C1CCCN(c2ncnc3onc(-c4ccc(F)cc4)c23)C1)c1ccccc1 (stereo not given) 0.0385%
O=C(NCC1CCCO1)c1c[nH]c2ccc(S(=O)(=O)Nc3ccc(F)cc3F)cc2c1=O (stereo not given) -11.4%
CCOc1ccc(NC(=O)NCCn2nnc3cc(S(=O)(=O)N(C)C)ccc32)cc1 0%
CC(C)(C)c1ccc(-c2nc(S(=O)(=O)c3ccccc3)c(N3CCOCC3)o2)cc1 -22.7%
CC1CCCCN1Cc1c(O)ccc2c(=O)c(-c3ccccc3)coc12 (stereo not given) 1.13%
CCOC(=O)C1=C(CN2CCCCC2)NC(=O)NC1c1ccc(C)cc1 (stereo not given) -10.3%
COc1cccc(CNS(=O)(=O)c2ccc(N3CCCCS3(=O)=O)cc2)c1 0%
COc1ccc(Cn2ccc3nc(C)c(C(=O)NCc4ccc(OC)cc4OC)cc3c2=O)cc1 -11%
COC(=O)c1ccccc1NC(=O)CCc1c(C)nc2c(c(C)nn2-c2ccccc2)c1C -5.55%
COc1ccc(-c2cc(C(=O)N3CCN(c4ccc(F)cc4)CC3)no2)cc1OC -0.966%
COc1ccc(-n2nnc(-c3nc(-c4ccccc4C)no3)c2N)cc1Cl -0.588%
COc1cccc(CNC(=O)CCCn2nc(C)n3c(cc4sccc43)c2=O)c1 -0.64%
Cc1ccc(N2CC(NC(=O)c3ccco3)CC2=O)cc1C (stereo not given) -1.76%
CC(C)COc1ccc(-c2nonc2NC(=O)c2ccc(F)cc2)cc1 -14.8%
O=C(NCCc1ccccc1)c1ccc(CSc2nc3ccncc3n2Cc2ccccc2F)cc1 -0.49%
CCN(C(=O)c1nn(-c2ccc(C)cc2)c(=O)c2c1c1ccccc1n2C)c1ccc(F)cc1 3.2%
O=C(Nc1nnc(S(=O)(=O)N2CCCC2)s1)c1ccccc1F 5.38%
CCOC(=O)c1cnc2c(C)cc(Cl)cc2c1NCCc1ccc(OC)c(OC)c1 -5.35%
O=C(Cn1ncc2c([nH]c3ccccc32)c1=O)NCc1cccc(Cl)c1 4.16%
COc1ccc(NC(=O)C(C)n2c(C)c3cnn(-c4ccccc4)c(=O)c3c2C)cc1Cl (stereo not given) -1.39%
CCOC(=O)c1cc(-c2ccc(F)cc2)n(CCC(=O)NCc2ccccc2OC)c1C -7.24%
O=C(CC1N=C2c3ccccc3N=C(SCc3ccccc3Cl)N2C1=O)NCc1cccs1 (stereo not given) -0.232%
COc1ccc(NC(=O)C(=O)NCC(c2cccnc2)N2CCc3ccccc3C2)cc1 (stereo not given) 6.05%
CCOC(=O)C1CCCN(Cc2cn3c(-c4ccc(Br)cc4)nnc3s2)C1 (stereo not given) -4.97%
CCOc1ccc(NC(=O)Cc2ccc(-n3c(C)nc4cccnc43)cc2)cc1 -8.3%
COc1ccc(C(=O)NNc2ncnc3c2cnn3-c2ccccc2)cc1 10.1%
CC(=O)N1CCC(N(Cc2ccco2)C(=O)Nc2ccc(Br)cc2F)CC1 -5.21%
Cc1ccc(NC(=O)CN2C(=O)c3ccccc3Sc3ccc(C(=O)N4CCCC4)cc32)cc1 -1.63%
O=C(Nc1cc(Cl)ccc1Cl)c1cc(S(=O)(=O)N2CCCc3ccccc32)ccc1F -7.44%
CCN(CC)CCNC(=O)c1[nH]c2ccccc2c1Sc1ccc(Cl)cc1 1.22%
CN(C(=O)c1ccc2c(c1)N(Cc1ccccc1F)C(=O)c1ccccc1S2(=O)=O)C1CCCCC1 -1.5%
COc1ccc(NC(=O)C(NC(=O)/C=C\c2ccc3c(c2)OCO3)c2ccc(OC)cc2)cc1 (stereo not given) 5.82%
Cc1cc2n(n1)CCC(=O)N2Cc1ccc(C(=O)Nc2ccc(Br)c(C)c2)cc1 -0.166%
COC(=O)c1c(NC(=O)COc2c(C)ccc(C)c2C)sc2c1CCC(C)C2 (stereo not given) 1.59%
CC1=C(C(=O)Nc2cccnc2)C(c2ccc(Cl)cc2)n2nc(SCc3ccccc3)nc2N1 (stereo not given) -3.77%
Cc1ccc(-n2nc(C(=O)Nc3cccc(C#N)c3)c3c4ccccc4n(C)c3c2=O)cc1 -0.403%
CCOc1ccc(NC(=O)[C@H](Cc2ccccc2)N2Cc3ccccc3C2=O)cc1 -0.231%
O=S(=O)(Nc1cccc(-c2ccc(N3CCOCC3)nn2)c1)c1ccccc1C(F)(F)F 4.3%
CCN(CC)c1cc2c(cc1F)c(=O)c(S(=O)(=O)c1ccc(C)cc1)cn2Cc1ccc(F)cc1 3.26%
CCCSc1nc2c(c(=O)[nH]1)C(c1ccc(F)cc1F)CC(=O)N2 (stereo not given) 0.178%
O=C(Cn1ncc2ccsc2c1=O)N1CCN(c2ccccc2)CC1 3.79%
CCCN1CCN(c2ncnc3sc(C(=O)Nc4cccc(Cl)c4C)c(C)c23)CC1 0%
O=C(NCCc1ccc(Cl)cc1)c1nc(-c2cccc(F)c2)n2c1CCCCC2 -3.13%
CCOC(=O)c1c(C)c(C(=O)NCc2ccc(Cl)cc2)c(C)n1CC -1.76%

Reference: PubChem BioAssay AID493208 (National Center for Advancing Translational Sciences (NCATS), 2011)
